Results on 89 compounds are retold here after PMC4336329 (PLoS ONE, 2015).

Out of some 310,000 compounds screened, about 14,000 (4.5%) showed an effect of 50% or more. Effects have a minus sign here. The list shows a part of the results.
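Further: peak tail current of the secondary pulse compared with the same well before compound.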

human ether-à-go-go-related gene (hERG) potassium channel, sequence (Q12809 whole entry, looked up): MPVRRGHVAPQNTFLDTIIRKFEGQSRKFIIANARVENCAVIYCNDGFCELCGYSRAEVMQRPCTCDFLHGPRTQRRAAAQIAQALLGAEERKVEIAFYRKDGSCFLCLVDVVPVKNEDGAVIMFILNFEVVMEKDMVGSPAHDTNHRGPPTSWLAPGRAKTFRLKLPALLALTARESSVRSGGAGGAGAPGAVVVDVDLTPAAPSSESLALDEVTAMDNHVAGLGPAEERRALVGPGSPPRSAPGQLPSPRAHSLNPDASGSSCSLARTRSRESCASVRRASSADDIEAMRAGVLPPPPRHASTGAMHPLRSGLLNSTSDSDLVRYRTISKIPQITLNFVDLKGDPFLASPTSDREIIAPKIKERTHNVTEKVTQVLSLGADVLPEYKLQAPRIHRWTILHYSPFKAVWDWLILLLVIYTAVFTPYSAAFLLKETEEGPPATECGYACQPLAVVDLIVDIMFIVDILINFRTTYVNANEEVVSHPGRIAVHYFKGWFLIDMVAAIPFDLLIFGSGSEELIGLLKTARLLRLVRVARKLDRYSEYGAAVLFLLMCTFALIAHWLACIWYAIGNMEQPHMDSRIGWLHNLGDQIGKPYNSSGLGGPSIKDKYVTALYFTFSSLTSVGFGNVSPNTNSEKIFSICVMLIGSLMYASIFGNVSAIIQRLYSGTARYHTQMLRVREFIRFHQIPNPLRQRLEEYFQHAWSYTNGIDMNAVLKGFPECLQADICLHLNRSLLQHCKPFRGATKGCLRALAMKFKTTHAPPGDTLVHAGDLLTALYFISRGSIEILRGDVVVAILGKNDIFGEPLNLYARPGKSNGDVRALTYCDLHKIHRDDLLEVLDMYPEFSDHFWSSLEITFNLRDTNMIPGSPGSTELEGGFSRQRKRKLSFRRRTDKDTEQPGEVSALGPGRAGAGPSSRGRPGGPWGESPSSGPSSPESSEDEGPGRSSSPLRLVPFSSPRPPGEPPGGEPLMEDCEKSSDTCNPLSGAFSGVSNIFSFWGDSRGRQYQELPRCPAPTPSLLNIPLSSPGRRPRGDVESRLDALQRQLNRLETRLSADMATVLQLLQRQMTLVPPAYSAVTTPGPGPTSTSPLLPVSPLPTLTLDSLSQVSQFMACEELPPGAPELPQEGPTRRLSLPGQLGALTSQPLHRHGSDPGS

This assay addresses human ether-à-go-go-related gene (hERG) potassium channel (human, UniProt Q12809). Kind of assay: primary screen, population patch clamp on CHO cells stably expressing hERG.
With `COc1cccc(CNC(=O)c2ccccc2NC(=O)C2=C(C)OCCS2)c1OC`, the “hERG current change (%, negative = inhibition) at 10uM” value came to 2.51%. In the case of `CS(=O)(=O)N1N=C(c2ccco2)CC1c1cccc([N+](=O)[O-])c1` (centres unmarked) it was -6.06%; in that of `CCN1C(=O)c2ccc(C(=O)Nc3ncc(C)s3)cc2C1=O`, 6.29%. In the case of `CSc1nc2ccc(NS(=O)(=O)c3ccc(Cl)s3)cc2s1` it was -2.78%. In the case of `CC(=O)C1=C(O)C(=O)N(Cc2ccccc2)C1c1ccc(F)cc1` (centres unmarked) it was 22.2%. As to `COc1cc(NCc2ccccc2)c2ncn(C(C)C)c2c1`, the “hERG current change (%, negative = inhibition) at 10uM” value is -11.4%. In the case of `Cc1ccc(-c2cc(C(=O)NCCCN3CCOCC3)c3ccccc3n2)cc1C` it was 0.698%; in that of `CCC(C)N=CC1=C(O)CC(c2ccccc2)CC1=O` (centres unmarked), -4.11%. In the case of `CCOC(=O)c1nn(-c2cc(C(=O)OC)cc(C(=O)OC)c2)cc1O` it was -3.29%; in that of `Br.CC(C)(C)c1ccc(-c2csc(NNC3=NCCCCC3)n2)cc1`, 4.02%. In the case of `Cc1ccc(CSc2ccc(S(=O)(=O)N3CCCC3)cn2)cc1` it was -4.27%; in that of `Cc1nn(C(=O)Cn2ccc([N+](=O)[O-])n2)c(C)c1Br`, -3.85%; in that of `O=C(CSc1nc2ccccc2c(=O)n1CCCN1CCOCC1)NC12CC3CC(CC(C3)C1)C2`, -67.8%. Consider `CC(Oc1ccc(-c2ccccc2)c(F)c1)c1ccn(S(=O)(=O)c2ccc(Br)cc2)n1` (centres unmarked), for which the “hERG current change (%, negative = inhibition) at 10uM” value stood at 7.43%. In the case of `COC(CNC(=O)c1ccc2c3c(onc13)-c1ccccc1C2=O)OC` it was -1.15%; in that of `CCCCOC(=O)C1=C(C)NC(=O)NC1c1ccc(N(C)C)cc1` (centres unmarked), 21.7%; in that of `Cc1cc(C)cc(N/C(N)=N/c2nc(C)cc(C)n2)c1`, -50%. With `Cc1nc2scc(C)n2c(=O)c1S(=O)(=O)Nc1ccc(N2CCN(C(=O)C(C)C)CC2)cc1`, the “hERG current change (%, negative = inhibition) at 10uM” value was -0.736%. On to `O=S(=O)(/N=C(/Nc1ccccn1)c1ccc(Cl)cc1)c1ccc(Cl)cc1`, for which the “hERG current change (%, negative = inhibition) at 10uM” value is -13.3%.

Take `Cc1ccc(-n2c(-c3ccncc3)n[nH]c2=S)c(C)c1`: the “hERG current change (%, negative = inhibition) at 10uM” value amounted to 13.7%. For `Cc1oc(-c2cccc(Cl)c2)[n+]([O-])c1C.Cl`, the “hERG current change (%, negative = inhibition) at 10uM” value was determined as 6.8%. For the compound `N/C(=N\NC(=O)c1cccc(F)c1)c1cc2ccccc2oc1=O`, the “hERG current change (%, negative = inhibition) at 10uM” value is given as -3.1%. In the case of `Cc1ccsc1CN(C)C(=O)CCc1nnc(COc2ccccc2)o1` it was -25.7%; in that of `O=C(CCNc1ccccc1)c1cccc([N+](=O)[O-])c1`, -31.5%.

As for `COc1ccc(-c2c(-c3ccsc3)oc(=O)c3cc(OC)c(OC)cc23)cc1`, the “hERG current change (%, negative = inhibition) at 10uM” value stood at 6.24%. In the case of `COc1cccc(/C(=N/O)C2CC2c2ccc(Cl)cc2)c1` (centres unmarked), the “hERG current change (%, negative = inhibition) at 10uM” value came to 10.4%. For `O=C(CN1CCN(c2ccccc2O)CC1)Nc1ccc2c(c1)CCC2`, the “hERG current change (%, negative = inhibition) at 10uM” value is -35.1%.

With `COc1ccc(N(CC(=O)Nc2ccc(C)cc2C)S(=O)(=O)c2c(C)n[nH]c2C)cc1`, the “hERG current change (%, negative = inhibition) at 10uM” value is reported as -4.4%. In the case of `CC(C)c1ccc(OCc2ccc(C(=O)N3CCN(c4ccccn4)CC3)cc2)cc1` it was -42.6%; in that of `O=S(=O)(c1cccc2ccccc12)n1nnc2ccccc21`, 15.6%; in that of `Cc1cccc(-c2n[nH]c(=S)n2-c2ccccc2)c1[N+](=O)[O-]`, 14%. The result for `CC(C)O/C(=N\S(=O)(=O)c1ccc(Cl)cc1)c1ccccc1` reads -10.5%. The result for `O=C(Nc1cc(F)ccc1F)N1CCN(c2ccnc3cc(Cl)ccc23)CC1` reads -66.4%. Turning to `Cc1ccc(NCc2nnc(SCC(=O)NCc3ccco3)n2CC2CCCO2)cc1Cl` (centres unmarked), the “hERG current change (%, negative = inhibition) at 10uM” value was -7.7%. The result for `c1ccc(CN(Cc2ccccc2)c2ncnc3c2nnn3Cc2ccccc2)cc1` reads 7.63%; that for `COc1cccc(CN=C2Nc3ccccc3CS2)c1`, 4.23%. In the case of `N#Cc1ccc(OC(=O)c2cnccn2)cc1` it was 8.78%; in that of `CCN(C1CCS(=O)(=O)C1)S(=O)(=O)c1ccc2ccccc2c1` (centres unmarked), -10.5%; in that of `CN1C(C(=O)NCc2ccco2)CC2Cn3c(nc4cc(Cl)c(Cl)cc43)C21` (centres unmarked), -43.2%. Take `CCN(CC)CCCCN1c2ccccc2Sc2ccccc21.Cl`: the “hERG current change (%, negative = inhibition) at 10uM” value is reported as -61.7%. In the case of `O=C(NCCc1ccc(Cl)cc1)C1CCC(=O)N1Cc1ccccc1Cl` (centres unmarked), the “hERG current change (%, negative = inhibition) at 10uM” value is recorded as -9.45%.

On to `O=C(O)c1ccc(-c2ccc(OS(=O)(=O)c3ccccc3F)cc2)cc1`, for which the “hERG current change (%, negative = inhibition) at 10uM” value is reported as 9.84%. The result for `CCN1C(=O)C(CC(=O)Nc2ccc(F)cc2)N(Cc2ccc3c(c2)OCO3)C1=S` (centres unmarked) reads 2.16%; that for `CCc1ccccc1NC(=S)NCc1ccc2c(c1)OCO2`, -19.9%. The result for `O=C(CCc1ccccc1)N1CCCC1` reads 8.96%; that for `COc1ccccc1NC(=S)NC(=O)Cc1ccccc1`, 19.3%. In the case of `O=C(CCS(=O)(=O)c1cccs1)Nc1ccc(C(=O)NCc2cccs2)cc1` it was 3.97%.

As to `CC(=O)OCCN1C(=O)c2cccnc2C1=O`, the “hERG current change (%, negative = inhibition) at 10uM” value is -5.21%. The result for `Cc1ccccc1S(=O)(=O)Nc1nc2ccccc2nc1N1CCOCC1` reads 7.22%; that for `N#CC1=C(N)SC(N)=C(C#N)C1c1cccc(O)c1`, 13.6%. `O=C(CN1CCOCC1)Nc1scc2c1c(=O)oc1ccccc12`: the “hERG current change (%, negative = inhibition) at 10uM” value amounted to 16.1%. In the case of `C/C=C/C(=O)OCC(=O)Nc1ccc(SC(F)F)cc1`, the “hERG current change (%, negative = inhibition) at 10uM” value is -22.2%. Consider `COc1ccc(Cl)cc1NC(=O)CN1CCC(n2nnc3cc(C)ccc32)CC1`, for which the “hERG current change (%, negative = inhibition) at 10uM” value is reported as -24.2%. Turning to `O=C(Nc1ccc(Oc2cccnc2)cc1)C1CCN(Cc2ccc(F)cc2)CC1`, the “hERG current change (%, negative = inhibition) at 10uM” value is listed as -55.2%. Take `Cn1c(=O)c2c(nc(N3CCOCC3)n2CC(=O)C23CC4CC(CC(C4)C2)C3)n(C)c1=O`: the “hERG current change (%, negative = inhibition) at 10uM” value is on record as -24.3%. The result for `CN(C)C(CNC(=O)C1CCCN(C(=O)c2ccc(Cl)cc2)C1)c1ccco1` (centres unmarked) reads 5.06%; that for `Cn1c(=O)c2ncn(CC(=O)Nc3cc(C(F)(F)F)ccc3N3CCOCC3)c2n(C)c1=O`, -49.2%; that for `CCN(CC)c1ccc(C(=O)c2ccccc2C(=O)O)c(O)c1`, 3.8%. In the case of `O=C(O)[C@@H]1CCCN1C(=O)c1ccccc1N1C(=O)[C@@H]2Cc3c([nH]c4ccccc34)C(c3cccc(Cl)c3)N2C1=O` (some centres unmarked) it was 3.44%; in that of `COc1cc(NC(=O)c2cc(Br)cc(C)c2OC)ccc1NC(=O)C(C)C`, 6.34%; in that of `CCCC(C)C(=O)Nc1ccc(S(N)(=O)=O)cc1` (centres unmarked), 11%. As for `CC(=O)c1ccc(NC(=O)C2C3C=CC(O3)C2C(=O)O)cc1` (centres unmarked), the “hERG current change (%, negative = inhibition) at 10uM” value is 10.9%. Take `CC(=O)Nc1ccc(N=Nc2ccc(O)cc2)cc1`: the “hERG current change (%, negative = inhibition) at 10uM” value is listed as 29.2%.

For the compound `O=c1cc(CO)occ1OCc1c(F)cccc1Cl`, the “hERG current change (%, negative = inhibition) at 10uM” value is given as 9.21%. The result for `COCc1ccc(CN2CCc3c([nH]c4ccccc34)C2CC(C)C)o1` (centres unmarked) reads -58.7%; that for `O=C(c1cccs1)N1CCN(c2ccccc2)CC1`, -0.00412%; that for `O=C(O)c1cc(-c2ccc(O)cc2)nc2ccccc12`, 21.5%.

For `COc1cc(C(=O)OCc2nc3ccsc3c(=O)[nH]2)c([N+](=O)[O-])cc1OC`, the “hERG current change (%, negative = inhibition) at 10uM” value is given as -24.5%. In the case of `Cc1ccccc1Nc1nn2c(=O)c3ccccc3nc2s1` it was -7.82%; in that of `Cc1ccc(C(=O)Nc2ccccc2Cl)cc1`, 13%.

As for `O=C(CN1CCc2ccccc21)NC(=O)NCc1ccco1`, the “hERG current change (%, negative = inhibition) at 10uM” value was -6.87%. In the case of `CCCCN1CCCCC1C(=O)Nc1c(C)cc(C)cc1C.Cl` (centres unmarked) it was -36.6%; in that of `COc1ccccc1-c1nn(-c2ccccc2)cc1C(=O)NC1CC1`, -4.1%. `CCCCN(C(=O)c1cccc(S(=O)(=O)N2CCN(C)CC2)c1)c1c(N)n(CCCC)c(=O)[nH]c1=O`: the “hERG current change (%, negative = inhibition) at 10uM” value was found to be 9.04%. In the case of `COc1ccc(CC(=O)N2C[C@H]3C[C@@H](C2)c2cccc(=O)n2C3)cc1` it was 0.502%; in that of `COc1ccc(NC(=O)Cn2nnc(C(=O)NCCc3ccccc3)c2N)cc1`, 24.6%. With `Cc1cccc(NC(=S)N2CC3CC(C2)c2cccc(=O)n2C3)c1C` (centres unmarked), the “hERG current change (%, negative = inhibition) at 10uM” value is reported as 24%. The result for `Cc1ccc2nc3c(nc2c1C)C(O)=C3O` reads 6.68%; that for `COc1ccc(NC(=O)COC(=O)C2CC3C=CC2C3)cc1` (centres unmarked), -0.182%. As for `COc1ccc(OCc2cc(C(=O)N3C[C@H]4CC[C@H]3C4)no2)c(Cl)c1`, the “hERG current change (%, negative = inhibition) at 10uM” value is -3.96%. For `COc1ccc(CC(=O)NNC(=S)NC(=O)c2cccnc2)cc1`, the “hERG current change (%, negative = inhibition) at 10uM” value amounted to 7.36%. In the case of `c1ccc(C2C/C(=N\N3CCOCC3)c3ccccc3O2)cc1` (centres unmarked), the “hERG current change (%, negative = inhibition) at 10uM” value came out at 5.14%.

As for `CCOC(=O)Cn1c(=O)oc2cc(S(=O)(=O)N(C)c3ccc(OC)cc3)ccc21`, the “hERG current change (%, negative = inhibition) at 10uM” value is -21.7%. The result for `COc1cc(OC)cc(C(=O)Nc2ccccc2C(=O)NCc2cccnc2)c1` reads -6.78%. In the case of `CCOc1ccc(OCCCCN(C)C)cc1` it was 3.69%. In the case of `CCOC(=O)Cn1cnc2c(nnn2-c2ccc(OC)cc2)c1=O`, the “hERG current change (%, negative = inhibition) at 10uM” value was -1.5%. On to `CC1(C)N=C(c2ccccc2)C(=O)N1`, for which the “hERG current change (%, negative = inhibition) at 10uM” value is given as -9.82%. As to `COc1ccc(OC)c(CN2CCN(c3ccccc3OC)CC2)c1`, the “hERG current change (%, negative = inhibition) at 10uM” value is -32.7%. The result for `c1ccc(-n2cc(CNCCc3cscn3)c(-c3ccc4c(c3)OCO4)n2)cc1` reads -65.4%.
